Article PMC4336329 (PLoS ONE, 2015)
The whole screen tested about 310,000 compounds, of which about 2,200 (0.71%) showed an effect of 50% or more. Effects have a minus sign here. The list shows a part of the results.

Biological target: human ether-à-go-go-related gene (hERG) potassium channel (human, UniProt Q12809)
Test: primary screen, population patch clamp on CHO cells stably expressing hERG

Sequence of human ether-à-go-go-related gene (hERG) potassium channel (Q12809 whole entry, looked up): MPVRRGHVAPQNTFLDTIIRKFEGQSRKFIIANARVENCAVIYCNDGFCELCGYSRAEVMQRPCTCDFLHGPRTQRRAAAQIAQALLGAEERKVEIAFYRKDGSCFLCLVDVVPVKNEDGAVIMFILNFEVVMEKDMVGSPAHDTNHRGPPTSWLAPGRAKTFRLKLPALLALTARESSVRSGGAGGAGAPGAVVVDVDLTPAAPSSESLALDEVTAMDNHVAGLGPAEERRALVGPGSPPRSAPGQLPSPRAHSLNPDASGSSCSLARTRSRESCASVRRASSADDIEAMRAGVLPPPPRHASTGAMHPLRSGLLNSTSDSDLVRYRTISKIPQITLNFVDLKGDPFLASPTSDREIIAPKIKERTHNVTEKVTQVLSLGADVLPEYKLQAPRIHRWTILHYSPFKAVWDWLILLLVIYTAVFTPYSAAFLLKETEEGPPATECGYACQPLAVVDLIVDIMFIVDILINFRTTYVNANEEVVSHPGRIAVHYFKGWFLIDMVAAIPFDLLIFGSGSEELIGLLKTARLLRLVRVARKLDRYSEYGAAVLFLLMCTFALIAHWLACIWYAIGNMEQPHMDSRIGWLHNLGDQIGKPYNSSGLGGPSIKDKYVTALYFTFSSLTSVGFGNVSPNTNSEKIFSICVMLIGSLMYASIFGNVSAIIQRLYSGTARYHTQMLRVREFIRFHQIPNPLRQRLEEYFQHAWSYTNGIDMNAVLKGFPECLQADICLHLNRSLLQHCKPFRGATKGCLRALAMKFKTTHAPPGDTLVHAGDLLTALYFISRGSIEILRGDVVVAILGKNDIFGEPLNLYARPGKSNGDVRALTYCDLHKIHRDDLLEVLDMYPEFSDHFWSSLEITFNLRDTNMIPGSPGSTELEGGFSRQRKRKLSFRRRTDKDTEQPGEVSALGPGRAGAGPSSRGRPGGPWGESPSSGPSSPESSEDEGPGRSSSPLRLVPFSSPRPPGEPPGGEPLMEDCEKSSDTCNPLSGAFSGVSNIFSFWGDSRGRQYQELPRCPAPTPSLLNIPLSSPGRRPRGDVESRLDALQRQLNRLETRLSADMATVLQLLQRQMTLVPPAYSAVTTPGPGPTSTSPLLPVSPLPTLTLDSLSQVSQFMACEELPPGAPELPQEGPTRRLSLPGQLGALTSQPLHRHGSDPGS

SMILES	hERG current change (%, negative = inhibition) at 1uM [%]
COc1ccc(CCNC(=O)C(=O)NCC2OCCN2C(=O)c2ccc(Cl)cc2)cc1OC (centres unmarked)	7.64
CC1C(C)C(O)(c2ccccc2)CCN1C (centres unmarked)	13.4
N#Cc1c2ccc(O)cc2n2ccccc12	22
Nn1c(SCC(=O)Nc2nc3ccccc3s2)nncc1=O	11.6
COc1ccc(Cn2nnnc2CN2CCc3ccccc3C2)cc1.Cl	-0.13
Cc1cccc(C)c1-n1nnnc1SCSc1nnnn1-c1c(C)cccc1C	8.64
CCn1c(SCC(=O)N2CCc3ccccc3C2)nc2sc(C)c(C)c2c1=O	4.78
COCCC(=O)N1CCC(n2nccc2NC(=O)c2ccccc2C)CC1	16
COc1ccccc1NC(=O)Cn1nnc(-c2ccccc2NC(=O)c2cnccn2)n1	11.2
Cc1c(Cc2ccccc2)c(NCCN(C)C)n2c(nc3ccccc32)c1C#N	4.4
Cc1ccccc1Oc1ncnc2sccc12	9.26
CC(C)OC(=O)C1CC(C)(O)C(=O)C(C(=O)OC(C)C)C1c1ccc([N+](=O)[O-])cc1 (centres unmarked)	1.73
CCOc1ccc(C(=O)NCc2ccc3c(c2)OCO3)cc1	26.1
O=C(Nc1ccc2c(c1)OCCO2)c1cc(F)c(F)cc1Cl	14.2
Cc1ccccc1-c1nc(-c2ccc(NC(=O)c3cccs3)cc2)no1	11.2
Cc1c(C(=O)NC(=S)NCC(C)C)oc2ccccc12	15.9
Cc1cc(N2CCOCC2)ccc1/C=C1\NC(=O)N(Cc2ccccc2)C1=O	18.4
CCOC(=O)COc1ccccc1/C=C1/NC(=O)NC1=O	9.94
Cn1cnc(S(=O)(=O)Nc2ccc(Cl)c(C(F)(F)F)c2)c1	18.2
O=C(N/N=C/c1ccc[nH]1)c1cccc([N+](=O)[O-])c1	11
c1ccc(CNc2ncnc3c2oc2ccccc23)nc1	11.8
CCOC(=O)c1c(NC(=O)c2cccs2)sc(C)c1CC	14.5
COc1ccc(NC(=O)N2CCN(S(C)(=O)=O)CC2)cc1	3.17

SMILES	hERG current change (%, negative = inhibition) at 1uM [%]
CCOC(=O)N1CCN(C(=O)c2ccc3c(c2)ncn3C2CCCC2)CC1	6.43
COc1cc(/C=N/NC(N)=O)ccc1OCC(=O)Nc1cc(C)c(C)cc1Br	19.3
CCOC(=O)C(=CNc1ccccc1C)C(=O)OCC	2.89
O=C(Cn1nnc(-c2ccc(Cl)cc2)n1)NC1CCN(Cc2ccccc2)CC1	8.02
CC(C)Cc1nnc(NC(=O)CSc2nc(=O)cc(N)n2-c2ccccc2)s1	5.1
CCN(CC)C(=O)c1ccc2c(=O)n(CCOC)c(=S)[nH]c2c1	-0.177
Cc1cccc(NS(=O)(=O)c2cc(C(=O)OC(C)C(=O)NCc3ccc4c(c3)OCO4)ccc2C)c1 (centres unmarked)	-0.425
Cc1cc(/C=C2\C(=O)NC(=O)N(c3ccc(Br)cc3)C2=O)c(C)n1-c1cc(C(=O)O)cc(C(=O)O)c1	7.36
CCn1c(=O)c2c(nc3n2CCS3)n(C)c1=O	11.3
COc1ccc(-n2c(=O)c3ccccc3n(CC(=O)NCc3ccco3)c2=O)cc1	14.3
Cc1cccc(/C=N/n2c(C)nc3ccccc3c2=O)c1	12.9
Cc1cc(NC(=O)CSc2nnc(N)s2)c([N+](=O)[O-])cc1C	5.29
CCN(CC)S(=O)(=O)c1ccc(N2CCN(C)CC2)c(NC(=O)Nc2ccccc2F)c1	0.899
O=C(Nc1cc(F)cc(F)c1)c1sc(Cl)nc1-c1ccccc1	12.7
CC(NC(=O)c1cc(COc2ccccc2)on1)c1nccs1 (centres unmarked)	1.89
Cc1ccc(Cn2ccsc2=NC(=O)CCl)cc1	13.2
Cc1ccc(N/C=C/C(=O)c2ccc(C)cc2)cc1	4.34
Cc1ccc(NC(=O)NCCCN2CCOCC2)cc1	9.77
CCC1CCCCN1C(=O)Nc1cccc(NC(=O)N2CCCCC2CC)c1 (centres unmarked)	21.6
COC(=O)C1=C(C)NC(C)=C(C(=O)OC)C1c1cn(-c2ccccc2)nc1-c1ccco1	20.1
CCCCc1nc2sc3c(=O)n(N)cnc3c2c2c1CCC2	1.19
Cc1cc(-c2csc(NC(=O)c3ccc(S(=O)(=O)N(C)C)cc3)n2)c(C)n1-c1ccccc1	-1.99
Cc1csc(=O)n1CC(=O)OCC(=O)NCc1ccc(Cl)cc1Cl	4.82

SMILES	hERG current change (%, negative = inhibition) at 1uM [%]
CC(/C=C/c1ccccc1)=N/NC(=O)c1nc2nc(C)cc(C)n2n1	-9.25
Cc1cc(NC(=O)CSCC(=O)Nc2nc3ccccc3s2)no1	2.74
COc1ccc(C(=O)/C=C(\C)NCc2ccc3c(c2)OCO3)cc1	-8.71
COC(=O)c1ccccc1NC(=O)COC(=O)c1ccco1	14.3
COCCNC(=O)c1cccc(OC2CCN(Cc3ccc(Cl)c(F)c3)CC2)c1	5.33
CCN(CC(=O)Nc1ccc(C)c(F)c1)CC(=O)NC(C)(C)C	11.7
Cc1nc2ccc3[nH]snc3c2n1	-1.71
C=CCOc1ccccc1/C=N/NC(=O)c1ccc(Cl)cc1Cl	10.5
Cc1ccc(C(=O)Nc2ccc(SC(F)F)cc2)s1	13.7
COc1ccc(NC(C)=O)cc1NC(C)C(=O)Nc1ccc(S(=O)(=O)N2CCCCC2)cc1 (centres unmarked)	0.735
Cc1cccc(OC(C)C(=O)N2CCCc3ccccc32)c1 (centres unmarked)	9.04
COc1ccc(NC(=O)c2ccc3ncsc3c2)cc1	11
Cc1ccc(CNC(=O)CCC2CCCN(Cc3cccc4c3OCO4)C2)o1 (centres unmarked)	-35.6
Cc1cnc(NC(=O)Cc2c[nH]c3ccccc23)s1	7.35
COc1ccccc1-c1nc2cc3ccccc3cc2nc1-c1ccccc1OC	-1.21
O=C(Nc1ccnn1C1CCN(Cc2ccccc2)CC1)c1ccccc1Cl	-53.1
Cc1ccc(N(CC(O)CN(C)C)S(=O)(=O)c2ccccc2)cc1.Cl (centres unmarked)	-62.8
COc1cccc(/C=N/NC(=O)c2nnn(-c3nonc3N)c2-c2cccs2)c1	13.5
CC(=O)Nc1ccc(C(=O)NCCN2CCOCC2)cc1	16.6
CC(OC(=O)c1cccs1)C(=O)NCc1ccccc1 (centres unmarked)	12.8
CCN(CC)S(=O)(=O)c1cc(NC(=O)c2ccc(-n3cncn3)c([N+](=O)[O-])c2)ccc1C	16.9
CCOC(=O)N1CCN(Cc2ccccn2)CC1.O=C(O)C(=O)O	15.8
COc1cccc(C(=O)NNC(=O)Cc2cccs2)c1	11.4

SMILES	hERG current change (%, negative = inhibition) at 1uM [%]
O=C1CCC(=O)N1OCCCOc1ccccc1	9.04
c1ccc2c(N3CCCCC3)nc(N3CCOCC3)nc2c1	-7.24
O=C1CN(C(=O)COc2c(Cl)cccc2Cl)c2ccccc2N1	-16.7
CC1NC(=O)c2ccccc2-n2c1nc1cc(F)ccc1c2=O (centres unmarked)	11.2
COc1cccc(C(=O)C2CCCN(Cc3cccc(OCCO)c3)C2)c1 (centres unmarked)	-9.73
CC1(c2nnc(-c3ccncc3)o2)CC(c2ccc(F)cc2)=NO1 (centres unmarked)	1.53
Cc1cc(C(=O)NNC(=O)c2cccc(S(=O)(=O)N3CCOCC3)c2)c2ccccc2n1	9.94
COc1cccc(CN(C(=O)c2ccccc2Br)C2CCS(=O)(=O)C2)c1 (centres unmarked)	31
CC(Sc1nnc(Nc2ccccc2F)s1)C(=O)NC1CC1 (centres unmarked)	3
c1ccc(C2=Nc3cccnc3C(c3ccccc3)=NN2)cc1	16.8
Cc1ccc(NC(=O)CSc2nnc(-c3cccnc3)n2-c2ccc(C)cc2)cc1	2.22
Cc1cccn2cc(CNC(=O)c3ccco3)nc12	1.48
O=C(COc1ccc(Cl)cc1Cl)NN=C1CCCCC1	3.18
CCCCC(=O)Nc1ccc(NC(=O)C(C)C)cn1	15.1
CCOC(=O)c1c(NC(=O)CSc2nnc3ccccn23)sc2c1CCC2	-5.62
Cc1ccc(CNC(=O)COc2cc(O)c3c(c2)OC(C)(C)CC3=O)cc1	8.7
O=C(CSc1nnc(-c2cccc(F)c2)o1)Nc1nncs1	10.7
CCOC(=O)C1CCCN(Cc2ccc(O)c(OC)c2)C1 (centres unmarked)	0.0293
O=C(CN1CCN(Cc2ccc(F)cc2Cl)C1=O)NCc1cccs1	7.47
O=c1cc(CN2CCN(Cc3ccccc3)CC2)c2ccc(O)cc2o1	-79.7
N#Cc1ccc(NC(=O)Nc2cccc(C#N)c2)cc1	9.2
CCC(c1nnc(SCc2nc3ccccc3s2)n1Cc1ccccc1)N(C)C (centres unmarked)	-16.6
COc1ccccc1NS(=O)(=O)c1cccc(NC(=O)NCCCl)c1	1.29
